From PMC10726135
The list shows a part of the results. At the low end of the ranking, values are background and their order means little. The protein was read in a cell extract, so binding may be indirect.

The sequences below were run against T1, HNF4alpha2 (COS-7 nuclear extract) (UniProt P41235) (assay: protein-binding microarray). Conditions: COS-7 nuclear extract on double-stranded Agilent 4x180k PBM; binding buffer, salt, pH and temperature not given; high values mean tight binding; double strand, one strand shown; sequences stand for … in …GCCTAGGGAGATTAGAGTATCGGTCGA.
T1 sequence: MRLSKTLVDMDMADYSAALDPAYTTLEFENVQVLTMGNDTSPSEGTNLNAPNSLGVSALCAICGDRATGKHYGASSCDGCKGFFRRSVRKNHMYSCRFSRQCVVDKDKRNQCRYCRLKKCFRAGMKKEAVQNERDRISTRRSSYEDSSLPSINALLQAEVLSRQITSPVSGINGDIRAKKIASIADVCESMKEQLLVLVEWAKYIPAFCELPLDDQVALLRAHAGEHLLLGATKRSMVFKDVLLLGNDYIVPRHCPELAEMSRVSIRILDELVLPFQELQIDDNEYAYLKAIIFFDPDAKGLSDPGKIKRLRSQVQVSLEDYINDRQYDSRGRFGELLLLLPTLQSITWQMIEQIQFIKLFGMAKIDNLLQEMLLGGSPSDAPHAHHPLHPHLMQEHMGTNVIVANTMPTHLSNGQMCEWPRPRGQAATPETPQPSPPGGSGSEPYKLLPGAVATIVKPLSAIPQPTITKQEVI

| Sequence | binding signal (log2 normalized intensity) |
| --- | --- |
| TGGACTTTGGTCCTGGTCAGACTTGCCACG | 4.5 |
| TCTCTAGATCTCAGTTGGTCCAAGGTACAT | 3.18 |
| GTGAATCCTTAAGATTCCTGCTCTAATGTT | -0.0894 |
| ACATTGTTAGCATAGCCTATCTGGTGCAGT | 1.01 |
| CAGTAACTCACTATCAGGAAACTCTTTCCT | -1.11 |
| AGTAGAAGAGCCAAAATGTGTTAGGCAAGC | -1.17 |
| TTCTCCTCCAGGACCTTGCCCTTTAGTTAT | 3.87 |
| CTCAAGGAGGCCCAAAGGAAGGACTTCAGG | -1.12 |
| GTATTTTTTCAACATATACTTTGAACTTGT | 3.47 |
| CAGGGTTGTGCAGGACTGCGTAACTTACAG | -0.877 |
| GCCACCTGAAGGCAGGTGTGGGTTGGGGGT | -0.893 |
| ACTTCAAGGTCCATTTGAGGCTAAGTGTAG | 0.989 |
| ATCAGAGCAAAGTTCAATTTCCAACAAATG | 2.67 |
| TTCCAATCTGGTGAAAGATGATGAGGCGGT | -1.05 |
| ATATTATGTTTTGTTATCTGTGCCACAGGT | 1.44 |
| GTCCTGGTCACAGTAACAGGGAGTCTGTTG | 0.215 |
| CAAACACAGATAGCATAATCAAAGAGAAAA | -1.05 |
| CCTCATCTGTGTAGAAATTGTGGCTTGTGT | 2.2 |
| CTGTGGTCTAGCTTGTTCTCTCCCCCAACC | 4.15 |
| GGACAGAGATAACTGGGGGCATAGCCCATG | -1.17 |
| GCGATCCGGGCTCCGGGCGCCGCGCGCGCC | -1.11 |
| GGTATCCACAGGAGGCCCCATCGCACGGCA | -1.14 |
| GAGGTGACTTGTCCTGAGATAAGTCACCTT | -0.66 |
| GAGGAGAATTGGCATTAATTCTTCTTTGAA | -0.987 |
| GATGCTGGACTTCAGCCTCCAGAACTATGA | 2.41 |

| Sequence | binding signal (log2 normalized intensity) |
| --- | --- |
| GAGAGGCTGCCATCCCACATTCCACAGACT | -0.961 |
| GCAAACACCTGGCCAGCGACTTTAGGGGCC | -1.12 |
| GACGGCTAAGAGAAATCCACACAGCACTGA | -1.21 |
| AAGGTCAGTTTCTTTAAGACAAGTGTCCCT | 1.58 |
| GATCCAACTCTGAAGATTCACAGGTGGGAT | -1.13 |
| ACTCTCTCTCTGTGTCACATACACCTGCGT | 1.08 |
| TCCTGTCCACCCTGAAAGAGAGGAGGCTGA | -1.14 |
| CTTACGGCCCTGTGGTGTTCGCTAAGATGT | 0.637 |
| AGCTGCCCTTTGCACATGCCCCTCCCAGGG | 2.6 |
| TGAAGTGAGTTGTTTGTTTTGAGATAGGGT | 1.85 |
| AAAAATCTCACTCACCCTAAGCCCTGCTCA | -0.982 |
| CCAAATTCTTTTTTTTTTTTTTTTTTTTTT | 3.38 |
| CAAGGTAAACATGATGAAAGCAATGTTTGA | 1.16 |
| CAGACGGATTCCACGGGGGTGCAGCCAAGT | -1.21 |
| ATGCTGATGGGGACCACAGAGAACTAATCT | -1.12 |
| GGAAATCCCGAAATAGAGCCAAACATGATA | -1.07 |
| CCCAGCCAGAATTCTCCCTGCAGTCCTCTG | -1.11 |
| TGTACCCGTCCACCTTTGGATCCAGCTCCT | 1.77 |
| ACCCTGACTCTGCAGCCGAACCGGCACGGT | -1.14 |
| TTAATATATGAAGATGGGCATTAGGTGGAC | 0.991 |
| CACAGTGGGGCAGATCACAAGCACCCCCCA | 4.01 |
| GCTTCCAGTTAAGCAGGTTCACATTTTTGT | 1.17 |
| AACAGGAATTCAAAGGTGCAAAGGTTAAAA | 5.35 |
| AACTTTGGACCACATATAGAGAAGCCAGGG | -1.17 |
| ACCAGGGGGCAGAGTGAGCAGCACTTTTGG | -0.845 |

| Sequence | binding signal (log2 normalized intensity) |
| --- | --- |
| CGGGAATCTGACCTTTGGGACATTCCCCAG | 4.61 |
| GGGGTCTGGTTTCTAGGTAGATAAGGGAGT | 1.29 |
| TGGATTACATACCCAAGTTCCCTCTCAGGA | 0.505 |
| TAATTCTTCTTTGAAAGTTTGGTGGACTTT | 6.32 |
| TTGACTGAGGTGCAGGACAAAGTGTGCACT | 0.151 |
| GAGGGTGGGTTCAAAGGTCAGAAAAAGCTG | 6.66 |
| GGGGGCGTTCCCCGAGCGAGCTCCGTGCGG | -1.13 |
| TGGCATGTATAATGACACTAGCAGAAGAGA | -1.08 |
| CAGAAGACCCTTGGCCTCTACAGCTACTCC | -1.1 |
| AAACAAGGCCAAAGTCTGGCAAATGAAATG | -0.544 |
| TCAGAGATCAAGATACAGGTCAGACCCTGG | 0.993 |
| ATAGTTGACCCTTGAACAATGTGGGGGTCG | 3.7 |
| GTAAGGCCCGTGAGATTGAAAGCTAAGGCA | -1.16 |
| TGAGGGAGGGAGGAGGGACTGAACAGATAT | -1.12 |
| GGGCCATTCCTCTATCTCCCTGTGACCTCC | 3.72 |
| CCTGTTTGCTTCTGCCCCCTGGAGGAGCAA | 2.67 |
| CGGCATTCTCTGGTCTGCGGTTGTGTAGAC | 1.57 |
| AAGATAATGACTAAGGCAGGGAAGGAGAGT | -1.19 |
| CAGTCACAGCAGTGGACTTTGACCTTGGCA | 10.2 |
| CACCCTGCTGTAAATAAAATGAGATTCCTT | -0.457 |
| GACCTTGGCACTGAAGAATGTCTAAATCTG | 0.492 |
| TCTGAAGATAAATGCCTTAGCTGTGACCAT | 0.619 |
| TAATCTGCTTCCAGTTCCATAATCCCCGAA | 2.9 |
| AGGAAGTGTGCACAAGTCCTCACAATAATG | -1.05 |
| GGCCCTCTAGTCTAGTCCAAACTGCAACCT | 0.759 |

| Sequence | binding signal (log2 normalized intensity) |
| --- | --- |
| GCAGGGGATGCCCTTTGACCTCTGCTTCCT | 8.18 |
| GCAGACTTGGATTTTCTCATCCCAGGGATA | -0.778 |
| ATGGGGACTTTGGACTCCTGTTTGAACAAA | 4.84 |
| TGAGAGGAATGAGCAGGAACCTTGTGGTGG | 0.29 |
| AAACCAAAGCTGGAGTGCAGTCCCCGGCTG | -1.04 |
| ACAATGGCATTTCACAGAGCAAGGGTCCAG | 2.12 |
| TCCTGAGTCCACATGAGCCTCTTTATCTCT | -1.1 |
| GTTTCAGCCTTATTCTTTGATCTCTTATCA | 1.32 |
| GGTTATTTCAATTACAAAGCAACACAATGC | 0.64 |
| TCGACTTCCTCTTCATATCAGTAAACCCCA | 4.64 |
| GTGTAAAACAGGTGAAAGATAAGGGCTAGT | -1.17 |
| ACAAGCCCGGCTTTGGGCTTGAGCAGCTGG | -1.18 |
| GGCAAGCAAGTGACATGTTGGTGGGGGTGG | 0.69 |
| GTCTGCCCAGAGCGGCAGCGCCTCCCGGTC | -1.39 |
| TCCTGGCCTCCACTCCTCCTCCTTCCCTCC | 1.13 |
| GGAAACTGCTTTGGTTAATCATTAGAGATG | 0.742 |
| TTTGCTCTGCTACTAACTGCATGACTTCAG | -1.01 |
| CGCCGCCTCTGCCTCTTGACCCCTTGGCCC | 5.17 |
| GGGTGAGGGTGAGGGTTAGGGGTTAGGGTT | 0.567 |
| TGCTAAGTGCCATGTAATCAAACTGAACTT | 1.74 |
| CCACCTGCTGGTCAGGAGACTGCTCGGCAT | -1.06 |
| TACCAAGGCTCAGAGGTCAAGTCACTGCTC | 2.57 |
| TTCAAATGAGGGCAGGATGCATGCACTTCA | 0.631 |
| ATTGTTATTTACGGTGGGCACCTCATACTA | -1.13 |
| AGGTCAGAGGTGAGAGCAGAATGAGCAAGG | -1.16 |

| Sequence | binding signal (log2 normalized intensity) |
| --- | --- |
| GCTCCAGCGGGGTTTGAATCCCGGGAATCC | -1.1 |
| CCCCTCCCCCAAGGCATGGGACCTTTGCCC | 6.5 |
| AGAATGAGGGGCAGGCTTAGCTGGGCTAGC | -1.11 |
| AAGCCAATCTCTCAAATCTAGCCAATGATG | -0.322 |
| AGTTTTAGAGTCAATACTCCACAAGACCAC | -1.13 |
| GAAACCCCTGTAAGTCCAAACAAAATACAA | -1.03 |
| TATCTGTTGTCAAACCCACATTCTTCACTG | 0.407 |
| AGACTGAACAATTATTGCCTGGCATCTAAC | -0.954 |
| GCCAACAACTAGGGCAAAGGTTAGCTTGGA | 4.27 |
| CCAAGGGCTGTAGCAACCAAGTACCGCAAA | -1.13 |
| GATAGTGGTTCCATTGTCCTACAGGACATT | 0.655 |
| AGGATGGGCCATGACCTTTACCCCCATTTG | 7.65 |
| ATGGGGTGGGGCAGAAAGGGCATGGATTTA | -1.17 |
| TCAAAGAACAAGTATCCTGGTAGTGCGACA | -0.618 |
| CGCTCCCCGACCTCCTGCTGCAGCTCTGGG | 0.0682 |
| CCAGATATAGGGGAGGTCCTAAAGAGGATA | -0.775 |
| TCTGTTTTAGTTGAGTGTGACAAGAAAGAC | 1.09 |
| TCTGCTCCCCCTGCCCTTCGTCCTGAGCAG | 2.23 |
| CACATGTACACAGGAATATCAACAGGAGCA | -0.901 |
| TTACTTCCACATGTGGGGAAACTGGACTGT | 2.97 |
| TGCCCTGGACATATTTGTCTTCCTATCTCC | 0.887 |
| TATATGACTCTAGATTGTTTGTTCTTGCTA | -0.701 |
| ATTCCTTGGACTCTGCCACTGGTTTGCACA | 1.15 |
| TTTGCCTCCCTGCATTCCATTTCTGCCCCT | 3.98 |
| CAAAGGATACAGATAAATAAATCAAGATCA | -1.17 |

| Sequence | binding signal (log2 normalized intensity) |
| --- | --- |
| ACCCTTGAACCTTCTTCTTGCAGTCCACAT | 1.59 |
| GGTGGTATGTGTGTGCTTTAACAAGGTGTG | 2.23 |
| GTCCAAACCCCTATGTTTAATGTATAAACC | 1.82 |
| AGCCCAATAAAATCTGGCAGCTTAAAAATG | -1.08 |
| TTCCTGCAGGCCCATCTGGGACTTCAAAGC | -1.02 |
| TTACTGGGGCCCATTGTATGAGGGTGAAGT | 1.01 |
| ATCTCCCAGGTCTCCTCCACAGAGCACAGG | -1.07 |
| TATCAGTAGTTGCAAATATTGCAGTGTAGA | 0.939 |
| CATAGGAACAAAGGTTGGTGTGAACCAGGG | 1.13 |
| CATGTGCAAAAGCACCCAAGGCTCTGCACA | -1.15 |
| ATATTTTCTTTGTGCTATTTTTGGCTTGGT | 2.13 |
| GCCTTCGCACCTGCCTGTCTCACCTCGCTA | -1.11 |
| ATCTGACCTTTGGTTAACTTCTTAACTTGG | 2.97 |
| CATAAAACCTAGACAGAAGCTTTCTGAGAA | -1.13 |
| AGTGAGACGTTCCAAACCGGTCTTTCCACT | -1.21 |
| GCAGGCCCATCTGGGACTTCAAAGCGCAGC | -1.18 |
| CCCAGACTGAATCACACTACTGGCTTTTCT | -1.12 |
| TTCCACACAGGTTATCTCATTACTCTGCAT | -1.07 |
| CAGCAGATAAGGCTAATCCTTACACAGCAG | -1.15 |
| TGCCCTGGGTAAACAGACCTCTCTCTCCCC | 1.77 |
